The results in this text go back to the antibiotic and cytotoxicity screens of Wong et al. (2023).

The other results are listed elsewhere or left out.

Assay [1] concerns HSkMC (human skeletal muscle cells). In words: cytotoxicity call (relative viability < 0.9). The note with it: 10 µM.
The test system of assay [2] is HepG2. In words: cytotoxicity call (relative viability < 0.9). The note with it: 10 µM.
In assay [3] the test system is S. aureus RN4220. Kind of assay: growth inhibition call (relative growth <= 0.2). The following applies: 50 µM.

Take `C[C@@H]1CN([C@H](C)CO)C(=O)Cc2cc(N(C)C)ccc2O[C@H]1CN(C)S(=O)(=O)c1ccc(Cl)cc1`: the cytotoxicity call in assay [1] and in assay [2] was “inactive” each time. The growth inhibition call in assay [3] was “inactive”.

Turning to `O=C(C[C@H]1C[C@H]2c3cc(NC(=O)c4ccc5c(c4)OCO5)ccc3O[C@H]2[C@@H](CO)O1)NCCc1ccccc1`, the cytotoxicity call in assay [1] and in assay [2] was “inactive” in each case. In assay [3], the growth inhibition call is “inactive”.

For the molecule `C[C@@H]1CN([C@@H](C)CO)C(=O)c2cc(NS(=O)(=O)c3cccs3)ccc2O[C@@H](C)CCCCO[C@@H]1CN(C)C(=O)Nc1ccc2c(c1)OCO2`, the cytotoxicity call in assay [1] and in assay [2] was “inactive” each time. The growth inhibition call in assay [3] is “inactive”.

On to `C[C@@H]1CCCCO[C@@H](CN(C)C(=O)Nc2cccc3ccccc23)[C@H](C)CN([C@H](C)CO)C(=O)c2cc(NS(=O)(=O)c3cccs3)ccc2O1`, for which the cytotoxicity call in assay [1] and in assay [2] was “inactive” throughout. Besides, the growth inhibition call in assay [3] is “inactive”.

`C[C@@H]1CN([C@@H](C)CO)C(=O)c2cc(NC(=O)CCN3CCOCC3)ccc2O[C@@H]1CN(C)Cc1ccccc1`: the cytotoxicity call in assay [1] and in assay [2] was “inactive” each time. Also, the growth inhibition call in assay [3] is “inactive”.

On to `N[C@@H](COCc1ccccc1)C(=O)O`, for which the cytotoxicity call in assay [1] and in assay [2] was “inactive” in each case. Besides, the growth inhibition call in assay [3] was “inactive”.

As to `C[C@@H]1CN([C@@H](C)CO)C(=O)c2cc(NS(C)(=O)=O)ccc2O[C@@H](C)CCCCO[C@H]1CN(C)C(=O)Nc1ccc(C(F)(F)F)cc1`, the cytotoxicity call in assay [1] and in assay [2] was “inactive” each time. For the same molecule, the growth inhibition call in assay [3] is “inactive”.

With `C[C@@H]1CCCCO[C@H](CN(C)S(=O)(=O)c2ccc(F)cc2)[C@@H](C)CN([C@@H](C)CO)C(=O)c2cc(NC(=O)Nc3cccc4ccccc34)ccc2O1`, the cytotoxicity call in assay [1] and in assay [2] was “inactive” in each case. Moreover, the growth inhibition call in assay [3] is “inactive”.

As to `COc1ccc2ccccc2c1-c1c(OC)ccc2ccccc12`, the cytotoxicity call in assay [1] and in assay [2] was “inactive” each time. The growth inhibition call in assay [3] was “inactive”.

`COc1ccc(NC(=O)Nc2ccc3c(c2)C(=O)N([C@H](C)CO)C[C@@H](C)[C@H](CN(C)S(C)(=O)=O)O3)cc1`: the cytotoxicity call in assay [1] was “inactive”. For the same molecule, the cytotoxicity call in assay [2] is “active”. Further, the growth inhibition call in assay [3] is “inactive”.

On to `CS(=O)(=O)N1CC[C@@H]2OCCN(C(=O)c3cccnc3)[C@@H]2C1`, for which the cytotoxicity call in assay [1] and in assay [2] was “inactive” each time. Also, the growth inhibition call in assay [3] is “inactive”.

Regarding `COc1ccc(C(C)C(=O)c2ccc(O)cc2O)cc1` (configuration not stated), the cytotoxicity call in assay [1] and in assay [2] was “inactive” each time. In addition, the growth inhibition call in assay [3] was “active”.

Consider `C[C@@H]1CN([C@@H](C)CO)C(=O)Cc2cc(NS(C)(=O)=O)ccc2O[C@H]1CN(C)S(C)(=O)=O`, for which the cytotoxicity call in assay [1] and in assay [2] was “inactive” throughout. Further, in assay [3], the growth inhibition call is “inactive”.

`C[C@H]1CN([C@@H](C)CO)C(=O)c2cc(NC(=O)CCC(F)(F)F)ccc2O[C@@H]1CN(C)Cc1ccc(Cl)c(Cl)c1`: the cytotoxicity call in assay [1] and in assay [2] was “inactive” throughout. In addition, the growth inhibition call in assay [3] is “inactive”.

For the molecule `C[C@H](CO)N1C[C@H](C)[C@@H](CN(C)C(=O)Nc2cccc3ccccc23)Oc2c(NC(=O)CCCCCC(=O)Nc3ccccc3N)cccc2C1=O`, the cytotoxicity call in assay [1] and in assay [2] was “inactive” in each case. Moreover, the growth inhibition call in assay [3] was “inactive”.

Take `Cc1noc(C)c1S(=O)(=O)Nc1ccc2c(c1)C(=O)N([C@@H](C)CO)C[C@@H](C)[C@H](CN(C)CC1CC1)O2`: the cytotoxicity call in assay [1] and in assay [2] was “inactive” throughout. In assay [3], the growth inhibition call was “inactive”.

Regarding `COc1ccc(NC(=O)N(C)C[C@@H]2Oc3ccc(NC(=O)C4CC4)cc3C(=O)N([C@H](C)CO)C[C@@H]2C)cc1`, the cytotoxicity call in assay [1] and in assay [2] was “inactive” in each case. For the same molecule, in assay [3], the growth inhibition call is “inactive”.

In the case of `C[C@@H]1CCCCO[C@@H](CN(C)CC2CC2)[C@H](C)CN([C@H](C)CO)C(=O)c2cc(NC(=O)Nc3ccc4c(c3)OCO4)ccc2O1`, the cytotoxicity call in assay [1] and in assay [2] was “inactive” each time. The growth inhibition call in assay [3] is “inactive”.

For `Cc1noc(C)c1S(=O)(=O)Nc1ccc2c(c1)C(=O)N([C@H](C)CO)C[C@@H](C)[C@@H](CN(C)Cc1ccc(Cl)c(Cl)c1)OCCCC[C@H](C)O2`, the cytotoxicity call in assay [1] and in assay [2] was “active” in each case. In addition, the growth inhibition call in assay [3] was “inactive”.

Turning to `COc1ccc(NC(=O)N(C)C[C@H]2OCCCC[C@@H](C)Oc3ccc(NC(=O)NC4CCCCC4)cc3C(=O)N([C@H](C)CO)C[C@@H]2C)cc1`, the cytotoxicity call in assay [1] and in assay [2] was “inactive” in each case. For the same molecule, in assay [3], the growth inhibition call was “inactive”.

As to `Cc1ccc(S[C@]2(C(=O)NCC(F)(F)F)CC(=O)N(Cc3ccccc3C(F)(F)F)[C@@H]2c2ccc(CO)cc2)cc1`, the cytotoxicity call in assay [1] and in assay [2] was “inactive” in each case. In assay [3], the growth inhibition call was “inactive”.

Take `COC(=O)C[C@H]1CC[C@H]2[C@@H](COC[C@@H](O)CN2S(=O)(=O)c2cn(C)cn2)O1`: the cytotoxicity call in assay [1] and in assay [2] was “inactive” each time. Moreover, the growth inhibition call in assay [3] is “inactive”.

Regarding `C[C@@H]1CCCCO[C@@H](CN(C)Cc2ccc(Cl)c(Cl)c2)[C@@H](C)CN([C@@H](C)CO)C(=O)c2cc(NC(=O)NC3CCCCC3)ccc2O1`, the cytotoxicity call in assay [1] was “inactive”. In assay [2], the cytotoxicity call was “active”. Moreover, the growth inhibition call in assay [3] is “inactive”.

`CC1(C)SC2C(NC(=O)C(N)c3ccc(O)cc3)C(=O)N2C1C(=O)O` (configuration not stated): the cytotoxicity call in assay [1] and in assay [2] was “inactive” each time. In assay [3], the growth inhibition call was “active”.

Consider `CCCNC(=O)N[C@@H]1C=C[C@@H](CC(=O)N2CCN(C)CC2)O[C@H]1CO`, for which the cytotoxicity call in assay [1] and in assay [2] was “inactive” throughout. Further, in assay [3], the growth inhibition call is “inactive”.

With `O=C(C[C@@H]1CC[C@@H]2[C@H](COC[C@@H](O)CN2S(=O)(=O)c2ccccc2F)O1)N1CCC(Cc2ccccc2)CC1`, the cytotoxicity call in assay [1] and in assay [2] was “inactive” each time. Also, the growth inhibition call in assay [3] is “inactive”.

As for `O=S(=O)(NCC[C@@H]1CC[C@@H](NS(=O)(=O)c2ccccc2Cl)[C@H](CO)O1)c1ccc(Cl)cc1`, the cytotoxicity call in assay [1] and in assay [2] was “inactive” in each case. In assay [3], the growth inhibition call was “inactive”.

For the molecule `CO[C@H](CN(C)C(=O)c1ccc2c(c1)OCO2)[C@@H](C)CN([C@H](C)CO)S(=O)(=O)c1ccc(C)cc1`, the cytotoxicity call in assay [1] and in assay [2] was “inactive” each time. The growth inhibition call in assay [3] is “inactive”.

In the case of `C[C@H]1CN([C@@H](C)CO)C(=O)c2cccc(NC(=O)Nc3ccccc3)c2O[C@H]1CN(C)CC1CCCCC1`, the cytotoxicity call in assay [1] and in assay [2] was “inactive” throughout. The growth inhibition call in assay [3] was “inactive”.
